Measured values from the supplement of paper PMC3334620.
Over roughly 33,000 sequences, “E-score (-0.5 to 0.5)” has its median near -0.04; the highest 2% begin near 0.36. This is one part of the list.

Each sequence was assayed against T1, Hmlalpha2 (UniProt P0CY09) (assay: PBM E-score (8-mer binding enrichment) (E-score (-0.5 to 0.5)); higher = stronger / more preferred TF binding; most listed sequences are background and not binding sites). Conditions: protein concentration: 200 nM; construct: GST-full length.
T1 sequence: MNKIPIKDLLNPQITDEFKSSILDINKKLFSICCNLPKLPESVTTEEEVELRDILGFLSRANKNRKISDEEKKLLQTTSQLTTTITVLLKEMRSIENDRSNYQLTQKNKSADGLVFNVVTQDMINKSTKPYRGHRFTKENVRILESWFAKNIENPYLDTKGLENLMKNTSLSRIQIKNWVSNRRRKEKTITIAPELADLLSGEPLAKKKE
Procedure, shortened: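 Bound GST-tagged yeast transcription factors, applied at about 100-200 nM to double-stranded universal all-10-mer Agilent arrays, were detected with fluorescent anti-GST. Scans were normalised with masliner. A modified Wilcoxon-Mann-Whitney statistic, the E-score, was assigned to each ungapped eight-base word pooled with its reverse complement by the Universal PBM Analysis Suite.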

Sequence | PBM E-score
CTATATGA | 0.053
TCCTGACA | 0.0397
ACACCAAT | 0.127
ATTCCTAG | -0.179
CGGTGTGC | -0.266
ACGGCTTG | -0.13
TAAAAAAA | 0.191
ACTGTACA | 0.242
GGTTGAGA | -0.039
ACTTCTAC | 0.235
TATCTGGA | -0.16
AGCGTGTC | 0.317
CACGCCGC | 0.0764
CGCCGACA | 0.0843
AACGTGAG | 0.121
AAGGCAGG | -0.162
CAGCCAAC | -0.134
CTATATAA | 0.0612
AGCGGTAT | 0.123
AATATTCT | -0.0233
CAGAACTG | 0.0458
CGGACCCA | -0.162
AGGTCAAT | 0.0276
GTGCATCA | -0.0186
GGCAGCTA | -0.104

Sequence | PBM E-score
AGAGCGTC | -0.0864
AAAGGCGA | -0.0613
GGCGCTAC | -0.215
ACACGGTG | 0.392
CGGATCGA | -0.185
CCAACCCA | -0.142
ATTCAGGC | -0.0534
CCACGGTC | -0.326
ACGACCAT | -0.214
GCTTCCAA | -0.0216
CCGGTATA | 0.0399
ACGGATCA | 0.0285
AAATTCTA | 0.181
AGTCAATA | 0.0743
AGCGGCGA | -0.134
GCTTTGCC | -0.273
TTAACTAA | 0.345
AACCTGGG | -0.158
TCCCCACA | -0.283
GCAAAGTA | 0.1
CCCGCACA | -0.0612
AAGGTTGT | 0.217
GGGTTCTA | -0.284
AAAGCTTG | 0.0544
AAAAGCCC | -0.245

Sequence | PBM E-score
AGTGAGGA | -0.289
CTTCTATA | 0.0651
AATACCCT | -0.0975
CATACGAG | -0.00242
GCGCAGGA | -0.231
CCTTACCC | -0.228
CACTGACA | 0.169
CATCAATG | -0.0383
CTGTTCAC | 0.0138
CTCCGGTA | -0.112
AAAGTCTG | -0.00127
TCAGCTCA | -0.113
ATTACCCG | 0.0829
ATGCTTCC | -0.0517
ACACGGCA | 0.339
CTCCGCTC | -0.21
ACAGGCAG | -0.103
ACACCTGA | 0.185
GTTAGCGA | 0.113
AAGGAATC | -0.128
AGCCTCAA | -0.226
GCCTTCTA | -0.161
ACCTTATC | -0.0389
AAGACGGT | -0.287
CCGGTGGC | -0.397

Sequence | PBM E-score
GTTGTGCA | -0.00044
AACTTCGT | 0.0882
CCCACCCG | -0.176
ACGGCATC | 0.00564
ACCCAATG | -0.0835
ATGTACTC | 0.304
GTTTTTGA | 0.15
ATGCGGCA | -0.106
GCACTGGA | -0.225
GATCGCTA | -0.102
AAAGTAGA | -0.0055
CTCAGGGA | -0.243
GCCAATCC | -0.151
CCTGCTCG | -0.21
CTCGACGA | -0.223
CGGCGGAG | -0.16
AGAGTGCC | -0.257
GCAATTTA | 0.164
CTAAGGGC | -0.287
AAACGCAT | 0.13
TATGATAA | 0.213
GTCTAATA | 0.222
TCGGGAAA | -0.0258
ATAATCAA | 0.00678
ATTTGACA | 0.327

Sequence | PBM E-score
CCATCCGA | -0.148
CGGATAAA | 0.0623
CCCGACTA | -0.238
AGGCTCGG | -0.305
CAGCGCAC | -0.234
ATTGCCGG | -0.104
ACTTTACA | 0.429
TATTGGAA | 0.15
CGCTCTAC | 0.193
AGAAACCG | -0.134
GTCTGATA | -0.0071
GCAGGGGC | -0.0353
AACATGTT | 0.46
CACGGAGA | -0.0771
GCCGATAA | -0.188
CTCCAGGA | -0.168
CGGGCACA | -0.204
CGACCGCC | -0.201
TAAAATCA | 0.203
ACCTCAAT | 0.0952
AAGTGATA | -0.134
AAGTTTCG | 0.00249
TAATTGGA | 0.049
AGTACTTG | 0.265
CGATCAGA | -0.124

Sequence | PBM E-score
CGAATATA | -0.00331
CAAGCCTC | -0.106
TTCAGAAA | -0.0245
ATGTAATG | 0.479
AACAGGCC | -0.142
CCAAACCC | -0.201
ACGGCGGG | -0.123
CGGGGCGC | -0.244
GGAGCAAA | -0.115
GGGTCAAA | -0.0776
AGTCCCTA | -0.254
ATAGGATA | 0.0006
ATGCGCAG | -0.163
GTTTCCAA | -0.146
CTAACAAC | 0.225
ACGTATAG | 0.129
AACTTACC | -0.0186
GACTAAAA | -0.0161
GCTCCCAA | -0.146
AAACGTGA | 0.168
AGCAGTTG | -0.136
GCTCGCCA | -0.129
CATTTCAG | 0.0157
GCCGCAGA | -0.278
ACTGGTAA | 0.122

Sequence | PBM E-score
TAACAAAA | 0.292
CACAGGCG | 0.034
AAGCCAAT | 0.0102
GGCCACAC | -0.191
TCGTTGCA | 0.0513
ACATTGTA | 0.304
AATGCTTG | -0.0267
GTCCGCCA | -0.307
TTGCTAAA | 0.0913
GCAGATGC | 0.017
AGAGTTGC | -0.0989
ACGTGGCT | 0.0222
GGAAACAC | 0.119
GCAAGGCA | -0.146
CTCGATTA | 0.117
CGGGCGTC | -0.187
CGGAGAGC | -0.0282
GAAAACTA | -0.00823
ATATGGCC | -0.203
AGCTAAAT | -0.00085
CAAGGGTA | -0.123
ATTGCCTC | -0.0708
CGATTGTA | 0.241
AACACACG | 0.319
TGCACCAA | -0.186

Sequence | PBM E-score
AACGTTGA | 0.149
CATACACC | -0.076
AGGCTGCC | -0.401
TATGTTCA | 0.316
CTCTCCAC | -0.404
AATCCAAC | -0.0243
GCGAATGA | 0.0849
ACGTTTCT | 0.00591
AGGTGGTA | -0.0201
CACCTCTG | -0.156
ACGACCCT | -0.115
CCTATTAC | 0.254
CGCGATCA | 0.106
AAGCAAAG | -0.00833
CTGTGTCA | 0.0766
AGATGCCC | -0.186
GCAGTAGA | -0.19
CGCTTATA | 0.00449
CGACGAAC | 0.0732
ACTTTCTG | -0.0407
CGTCTTTC | -0.222
AGACTCCT | -0.234
CGCCGGCC | -0.214
ACGCTTCG | 0.0459
TCACGAAA | 0.1

Sequence | PBM E-score
ATCTAGGC | -0.217
CACTCCAC | -0.141
AGACTCCC | -0.456
TGCCTCAA | -0.176
ACCGCGGC | -0.263
ACTACCGC | -0.0698
CAACCTGC | 0.0166
AAGGCTCG | -0.286
CCCTTCGG | -0.217
CCGTGGCC | -0.367
CAGGACCA | -0.233
ATCCATGA | -0.265
CTGAAAAG | -0.0818
GAACGTTC | 0.0114
AGCGATTA | -0.0258
ATTGCCAC | 0.0557
GAGCGTAC | -0.102
AGCCGAAG | -0.115
CTGAGCAA | -0.0846
CCTTGCAC | -0.0079
GACGTCTC | -0.101
GAGTGAAA | 0.0244
ATCTAGGG | -0.193
TCCAACCA | -0.124
ATCGTGCC | -0.0545

Sequence | PBM E-score
AGGCTCCC | -0.339
CAGATCTC | -0.232
ACCAAAAA | 0.124
AACCAAAC | -0.0507
AGCACACC | -0.245
ATTTAGGC | 0.0493
CCTACAGA | -0.108
ATCCTAGG | -0.289
ACCCCGGT | -0.362
CTGGAGCC | -0.238
AATGGGGT | 0.106
GGTTAAAC | 0.156
CGTAGTTC | 0.0471
GCCGAGGC | -0.0332
ATTTGGGC | -0.101
GCAAACCA | -0.0632
CTTAAGGC | -0.229
ATCGCTTC | 0.00567
AGCGAGAT | -0.217
CGAGCACG | -0.161
CTGCAGGC | -0.285
CTATGCCA | -0.0644
GCTAAACA | 0.213
GGTTATAA | 0.0757
CAACCACG | 0.111

Sequence | PBM E-score
AACCAAGG | -0.0859
GCCTCAAA | -0.207
AAAGGCGT | -0.14
CGAGGATA | -0.219
ATCGTGGA | -0.102
AAGCCTAT | 0.0328
GAAGCGAC | -0.125
CAGGCAGA | -0.164
GTAGCTAA | 0.0867
CTAGCGGC | -0.356
AACTGGTC | -0.12
AGTAGGCC | -0.0795
GCCGCGTA | 0.341
AGAGGGTG | -0.234
AGCCTTCG | -0.267
CATGCTCA | 0.121
CATGCCTC | 0.191
CTAAGTGC | -0.18
CCATAGGG | -0.243
AGTCGTCG | -0.249
AGATGATC | -0.0746
GTCTGCGA | -0.103
CGTCATTC | 0.0489
TGCAAGCA | 0.0392
ACCAGCTA | 0.0143

Sequence | PBM E-score
ATGCGCAA | -0.182
ATTATCCC | 0.0955
CGTGAAAG | 0.0792
ACTGCCCA | -0.0607
ATTTGGCC | 0.00302
CAGCTCAA | -0.182
AACGCCTT | -0.0856
ATCATAAT | 0.0917
CGGCGTTA | -0.0148
CTCGGTTC | -0.185
AGAGTGCT | 0.0169
AAGTATTC | 0.0867
ACAGCTCA | -0.122
TACGTAGA | 0.332
ATAGACAG | 0.0508
CATTCCGC | -0.204
GGATATAC | 0.0826
AAATCACC | 0.0614
GTCAAAGA | 0.172
GCACAGGA | -0.116
AATCCGCT | -0.108
CTTTCTGA | 0.0509
AACTTGAA | 0.0203
CGGCGTGA | -0.192
AGGGTGCA | -0.142

Sequence | PBM E-score
CCTACCAA | -0.00196
CCCTGCGA | -0.155
CGTCGCAA | -0.0903
CGTCGGCA | -0.13
CCGGTGCA | -0.247
AGCTGTAA | 0.153
CTCATATC | -0.331
CCTTTGAG | -0.122
CCGGCAGG | -0.284
TATGGTCA | -0.104
ATTCACGC | 0.102
ATGATGCC | -0.141
GACTACGA | -0.164
AACCGGGC | -0.337
GATGTACC | 0.135
GAAGCCCA | -0.291
AGTTATGG | -0.00247
CCCTTCAG | -0.197
ATCTCAGA | -0.191
CACCGATA | 0.0159
TAAGTAGA | 0.122
TATAAGGA | 0.078
CACCTAAG | 0.172
GATAGACC | -0.00159
CACCAGGC | -0.137

Sequence | PBM E-score
ATAAAAAC | 0.325
CCTCCTAA | -0.0883
CATAAAGG | -0.0516
CAGTTTGC | -0.118
CAGTCTCC | -0.127
ATTGAGCC | -0.0416
ACTGGACC | -0.159
GAATGTGC | -0.0692
ATCATGAA | -0.0623
CAGCGCAA | -0.218
AAGACATG | 0.299
GGCCCAAA | -0.319
CGGGCCAG | -0.275
CTTGGGGC | -0.338
CGTAAGCA | -0.0655
CAGTCCAG | -0.165
AGATAAAC | 0.0963
AGCCTCTC | -0.225
CCACACCG | -0.0872
